# Reference: the supplement of paper PMC4604168 (melanoma cell lines)
# The other results are listed elsewhere or left out. Single values are uncertain, as repeats are few or missing.
# Tested on: MeWo
# Assay: cell count relative to DMSO control; melanoma cells; higher = more viable cells
# Settings: library dose: standard library concentration; 72 h
# 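Also: cells treated in 1,536-well plates, then fixed and DAPI-stained, with nuclei counted from automated high-throughput microscope images.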
row,SMILES,cell count [%]
1,"CCCS(=O)(=O)Nc1ccc(F)c(C(=O)c2c[nH]c3ncc(Cl)cc23)c1F + C#Cc1cccc(Nc2ncnc3cc(OCCOC)c(OCCOC)cc23)c1 [erlotinib] (first compound 0.4 µM, partner dose 4 µM)",83
2,"C=C(c1ccc(C(=O)O)cc1)c1cc2c(cc1C)C(C)(C)CCC2(C)C [Bexarotene] + Nc1nc(F)nc2c1ncn2[C@@H]1O[C@H](CO)[C@@H](O)[C@@H]1O [fludarabine] (first compound 10 µM, partner dose 1 µM)",82.7
3,"CCCS(=O)(=O)Nc1ccc(F)c(C(=O)c2c[nH]c3ncc(Cl)cc23)c1F + O=C1NC(=O)/C(=C/c2ccc(-c3ccc(F)cc3O)o2)S1 [AS252424] (first compound 0.4 µM, partner dose 5 µM)",75
4,"NC1(c2ccc(-c3nc4ccn5c(=O)[nH]nc5c4cc3-c3ccccc3)cc2)CCC1 + Oc1nc(-c2ccc(C(F)(F)F)cc2)nc2c1CSCC2 [XAV939] (first compound 2 µM, partner dose 10 µM)",84
5,"CS(=O)(=O)c1ccc(C(=O)Nc2ccc(Cl)c(-c3ccccn3)c2)c(Cl)c1 [vismodegib] + O=C(O)C(=O)Nc1sc2c(c1C(=O)O)CCNC2 [TCS401] (first compound 5 µM, partner dose 8.33333 µM)",86.6
6,"CS(=O)(=O)c1ccc(C(=O)Nc2ccc(Cl)c(-c3ccccn3)c2)c(Cl)c1 [vismodegib] + Cn1c(Nc2ccc(C(F)(F)F)cc2)nc2cc(Oc3ccnc(-c4ncc(C(F)(F)F)[nH]4)c3)ccc21 [CHIR265] (first compound 5 µM, partner dose 0.4 µM)",77.6
7,"CN(c1ncccc1CNc1nc(Nc2ccc3c(c2)CC(=O)N3)ncc1C(F)(F)F)S(C)(=O)=O + COc1cc2ncnc(Nc3ccc(Oc4ccccc4)cc3)c2cc1OC [SrcI1] (first compound 0.4 µM, partner dose 10 µM)",79.8
8,"NC1(c2ccc(-c3nc4ccn5c(=O)[nH]nc5c4cc3-c3ccccc3)cc2)CCC1 + Oc1cc(-c2nc(-c3ccccc3)[nH]c2-c2ccncc2)ccc1Cl [L779450] (first compound 2 µM, partner dose 1 µM)",62.6
9,"CS(=O)(=O)c1ccc(C(=O)Nc2ccc(Cl)c(-c3ccccn3)c2)c(Cl)c1 [vismodegib] + C[C@]1(c2nc3c(C(N)=O)cccc3[nH]2)CCCN1 [Veliparib] (first compound 5 µM, partner dose 7 µM)",83
